Source: a compilation of properties of binary mixtures (doi:10.1021/acs.jced.2c00294)
The densities may have been worked out from excess volumes.

Test: xn = mol fraction of the nth substance listed
Conditions: 101 kPa

CCCC[N+]1(C)CCCC1.N#C[N-]C#N + CCCC[N+]1(C)CCCC1.O=S(=O)([N-]S(=O)(=O)C(F)(F)F)C(F)(F)F
x2 = 0.5
Conditions | mass density [kg/m3]
293 K | 1242.8
298 K | 1239.1
303 K | 1235.4
308 K | 1231.7
313 K | 1228.1

N#C[N-]S(=O)(=O)C(F)(F)F.[Li+] + CCCC[N+]1(CCCC1)C.[N-](C#N)S(=O)(=O)C(F)(F)F
mass density [kg/m3]
Conditions | 293 K | 298 K | 303 K | 308 K | 313 K | 318 K | 323 K
x1 = 0.05 | 1247.4 | 1243.6 | 1239.9 | 1236.2 | 1232.5 | 1228.8 | –
x1 = 0.1 | 1259.2 | 1255.5 | – | 1248 | 1244.3 | 1240.6 | –
x1 = 0.2 | 1285 | 1281.2 | 1277.5 | 1275.7 | 1270.1 | – | 1262.7

CCCC[N+]1(C)CCCC1.N#C[N-]S(=O)(=O)C(F)(F)F + [Li+].[N-](C#N)S(=O)(=O)C(F)(F)F
x2 = 0
Conditions | mass density [kg/m3]
293 K | 1235.8
298 K | 1232
303 K | 1228.3
318 K | 1217.2
323 K | 1213.5
